Assay results as given in patent publication US20110319597A1 (CAPHALON AUSTRALIA, published 2011).

B1: TNFα dAb Fc variant S76K (Fc fusion, name in Kabat numbering)
chain: DIQMTQSPSSLSASVGDRVTITCRASQAIDSYLHWYQQKPGKAPKLLIYSASNLETGVPSRFSGSGSGTDFTLTIKSLLPEDFATYYCQQVVWRPFTFGQGTKVEIKRV[human IgG1 Fc with changes left out]
B2: TNFα dAb Fc variant S76L (Fc fusion, name in Kabat numbering)
chain: DIQMTQSPSSLSASVGDRVTITCRASQAIDSYLHWYQQKPGKAPKLLIYSASNLETGVPSRFSGSGSGTDFTLTILSLLPEDFATYYCQQVVWRPFTFGQGTKVEIKRV[human IgG1 Fc with changes left out]
B3: TNFα dAb Fc variant S76P (Fc fusion, name in Kabat numbering)
chain: DIQMTQSPSSLSASVGDRVTITCRASQAIDSYLHWYQQKPGKAPKLLIYSASNLETGVPSRFSGSGSGTDFTLTIPSLLPEDFATYYCQQVVWRPFTFGQGTKVEIKRV[human IgG1 Fc with changes left out]
B4: TNFα dAb Fc variant S76Q (Fc fusion, name in Kabat numbering)
chain: DIQMTQSPSSLSASVGDRVTITCRASQAIDSYLHWYQQKPGKAPKLLIYSASNLETGVPSRFSGSGSGTDFTLTIQSLLPEDFATYYCQQVVWRPFTFGQGTKVEIKRV[human IgG1 Fc with changes left out]
B5: TNFα dAb Fc variant S76Y (Fc fusion, name in Kabat numbering)
chain: DIQMTQSPSSLSASVGDRVTITCRASQAIDSYLHWYQQKPGKAPKLLIYSASNLETGVPSRFSGSGSGTDFTLTIYSLLPEDFATYYCQQVVWRPFTFGQGTKVEIKRV[human IgG1 Fc with changes left out]
B6: TNFα dAb Fc variant S77A (Fc fusion, name in Kabat numbering)
chain: DIQMTQSPSSLSASVGDRVTITCRASQAIDSYLHWYQQKPGKAPKLLIYSASNLETGVPSRFSGSGSGTDFTLTISALLPEDFATYYCQQVVWRPFTFGQGTKVEIKRV[human IgG1 Fc with changes left out]
B7: TNFα dAb Fc variant S77D (Fc fusion, name in Kabat numbering)
chain: DIQMTQSPSSLSASVGDRVTITCRASQAIDSYLHWYQQKPGKAPKLLIYSASNLETGVPSRFSGSGSGTDFTLTISDLLPEDFATYYCQQVVWRPFTFGQGTKVEIKRV[human IgG1 Fc with changes left out]
B8: TNFα dAb Fc variant S77H (Fc fusion, name in Kabat numbering)
chain: DIQMTQSPSSLSASVGDRVTITCRASQAIDSYLHWYQQKPGKAPKLLIYSASNLETGVPSRFSGSGSGTDFTLTISHLLPEDFATYYCQQVVWRPFTFGQGTKVEIKRV[human IgG1 Fc with changes left out]
B9: TNFα dAb Fc variant S77K (Fc fusion, name in Kabat numbering)
chain: DIQMTQSPSSLSASVGDRVTITCRASQAIDSYLHWYQQKPGKAPKLLIYSASNLETGVPSRFSGSGSGTDFTLTISKLLPEDFATYYCQQVVWRPFTFGQGTKVEIKRV[human IgG1 Fc with changes left out]
B10: TNFα dAb Fc variant S77L (Fc fusion, name in Kabat numbering)
chain: DIQMTQSPSSLSASVGDRVTITCRASQAIDSYLHWYQQKPGKAPKLLIYSASNLETGVPSRFSGSGSGTDFTLTISLLLPEDFATYYCQQVVWRPFTFGQGTKVEIKRV[human IgG1 Fc with changes left out]
B11: TNFα dAb Fc variant S77P (Fc fusion, name in Kabat numbering)
chain: DIQMTQSPSSLSASVGDRVTITCRASQAIDSYLHWYQQKPGKAPKLLIYSASNLETGVPSRFSGSGSGTDFTLTISPLLPEDFATYYCQQVVWRPFTFGQGTKVEIKRV[human IgG1 Fc with changes left out]
B12: TNFα dAb Fc variant S77Q (Fc fusion, name in Kabat numbering)
chain: DIQMTQSPSSLSASVGDRVTITCRASQAIDSYLHWYQQKPGKAPKLLIYSASNLETGVPSRFSGSGSGTDFTLTISQLLPEDFATYYCQQVVWRPFTFGQGTKVEIKRV[human IgG1 Fc with changes left out]
B13: TNFα dAb Fc variant S77Y (Fc fusion, name in Kabat numbering)
chain: DIQMTQSPSSLSASVGDRVTITCRASQAIDSYLHWYQQKPGKAPKLLIYSASNLETGVPSRFSGSGSGTDFTLTISYLLPEDFATYYCQQVVWRPFTFGQGTKVEIKRV[human IgG1 Fc with changes left out]
B14: TNFα dAb Fc variant T69H (Fc fusion, name in Kabat numbering)
chain: DIQMTQSPSSLSASVGDRVTITCRASQAIDSYLHWYQQKPGKAPKLLIYSASNLETGVPSRFSGSGSGHDFTLTISSLLPEDFATYYCQQVVWRPFTFGQGTKVEIKRV[human IgG1 Fc with changes left out]
B15: TNFα dAb Fc variant T69P (Fc fusion, name in Kabat numbering)
chain: DIQMTQSPSSLSASVGDRVTITCRASQAIDSYLHWYQQKPGKAPKLLIYSASNLETGVPSRFSGSGSGPDFTLTISSLLPEDFATYYCQQVVWRPFTFGQGTKVEIKRV[human IgG1 Fc with changes left out]
B16: TNFα dAb Fc variant T72A (Fc fusion, name in Kabat numbering)
chain: DIQMTQSPSSLSASVGDRVTITCRASQAIDSYLHWYQQKPGKAPKLLIYSASNLETGVPSRFSGSGSGTDFALTISSLLPEDFATYYCQQVVWRPFTFGQGTKVEIKRV[human IgG1 Fc with changes left out]
B17: TNFα dAb Fc variant T72D (Fc fusion, name in Kabat numbering)
chain: DIQMTQSPSSLSASVGDRVTITCRASQAIDSYLHWYQQKPGKAPKLLIYSASNLETGVPSRFSGSGSGTDFDLTISSLLPEDFATYYCQQVVWRPFTFGQGTKVEIKRV[human IgG1 Fc with changes left out]
B18: TNFα dAb Fc variant T72K (Fc fusion, name in Kabat numbering)
chain: DIQMTQSPSSLSASVGDRVTITCRASQAIDSYLHWYQQKPGKAPKLLIYSASNLETGVPSRFSGSGSGTDFKLTISSLLPEDFATYYCQQVVWRPFTFGQGTKVEIKRV[human IgG1 Fc with changes left out]
B19: TNFα dAb Fc variant T72L (Fc fusion, name in Kabat numbering)
chain: DIQMTQSPSSLSASVGDRVTITCRASQAIDSYLHWYQQKPGKAPKLLIYSASNLETGVPSRFSGSGSGTDFLLTISSLLPEDFATYYCQQVVWRPFTFGQGTKVEIKRV[human IgG1 Fc with changes left out]
B20: TNFα dAb Fc variant T72P (Fc fusion, name in Kabat numbering)
chain: DIQMTQSPSSLSASVGDRVTITCRASQAIDSYLHWYQQKPGKAPKLLIYSASNLETGVPSRFSGSGSGTDFPLTISSLLPEDFATYYCQQVVWRPFTFGQGTKVEIKRV[human IgG1 Fc with changes left out]
B21: TNFα dAb Fc variant T72Q (Fc fusion, name in Kabat numbering)
chain: DIQMTQSPSSLSASVGDRVTITCRASQAIDSYLHWYQQKPGKAPKLLIYSASNLETGVPSRFSGSGSGTDFQLTISSLLPEDFATYYCQQVVWRPFTFGQGTKVEIKRV[human IgG1 Fc with changes left out]
B22: TNFα dAb Fc variant T72Y (Fc fusion, name in Kabat numbering)
chain: DIQMTQSPSSLSASVGDRVTITCRASQAIDSYLHWYQQKPGKAPKLLIYSASNLETGVPSRFSGSGSGTDFYLTISSLLPEDFATYYCQQVVWRPFTFGQGTKVEIKRV[human IgG1 Fc with changes left out]
B23: TNFα dAb Fc variant T74A (Fc fusion, name in Kabat numbering)
chain: DIQMTQSPSSLSASVGDRVTITCRASQAIDSYLHWYQQKPGKAPKLLIYSASNLETGVPSRFSGSGSGTDFTLAISSLLPEDFATYYCQQVVWRPFTFGQGTKVEIKRV[human IgG1 Fc with changes left out]
B24: TNFα dAb Fc variant T74D (Fc fusion, name in Kabat numbering)
chain: DIQMTQSPSSLSASVGDRVTITCRASQAIDSYLHWYQQKPGKAPKLLIYSASNLETGVPSRFSGSGSGTDFTLDISSLLPEDFATYYCQQVVWRPFTFGQGTKVEIKRV[human IgG1 Fc with changes left out]
B25: TNFα dAb Fc variant T74H (Fc fusion, name in Kabat numbering)
chain: DIQMTQSPSSLSASVGDRVTITCRASQAIDSYLHWYQQKPGKAPKLLIYSASNLETGVPSRFSGSGSGTDFTLHISSLLPEDFATYYCQQVVWRPFTFGQGTKVEIKRV[human IgG1 Fc with changes left out]
B26: TNFα dAb Fc variant T74K (Fc fusion, name in Kabat numbering)
chain: DIQMTQSPSSLSASVGDRVTITCRASQAIDSYLHWYQQKPGKAPKLLIYSASNLETGVPSRFSGSGSGTDFTLKISSLLPEDFATYYCQQVVWRPFTFGQGTKVEIKRV[human IgG1 Fc with changes left out]
B27: TNFα dAb Fc variant T74L (Fc fusion, name in Kabat numbering)
chain: DIQMTQSPSSLSASVGDRVTITCRASQAIDSYLHWYQQKPGKAPKLLIYSASNLETGVPSRFSGSGSGTDFTLLISSLLPEDFATYYCQQVVWRPFTFGQGTKVEIKRV[human IgG1 Fc with changes left out]
B28: TNFα dAb Fc variant T74P (Fc fusion, name in Kabat numbering)
chain: DIQMTQSPSSLSASVGDRVTITCRASQAIDSYLHWYQQKPGKAPKLLIYSASNLETGVPSRFSGSGSGTDFTLPISSLLPEDFATYYCQQVVWRPFTFGQGTKVEIKRV[human IgG1 Fc with changes left out]
B29: TNFα dAb Fc variant T74Q (Fc fusion, name in Kabat numbering)
chain: DIQMTQSPSSLSASVGDRVTITCRASQAIDSYLHWYQQKPGKAPKLLIYSASNLETGVPSRFSGSGSGTDFTLQISSLLPEDFATYYCQQVVWRPFTFGQGTKVEIKRV[human IgG1 Fc with changes left out]
B30: TNFα dAb Fc variant T74Y (Fc fusion, name in Kabat numbering)
chain: DIQMTQSPSSLSASVGDRVTITCRASQAIDSYLHWYQQKPGKAPKLLIYSASNLETGVPSRFSGSGSGTDFTLYISSLLPEDFATYYCQQVVWRPFTFGQGTKVEIKRV[human IgG1 Fc with changes left out]
B31: TNFα dAb Fc variant T85A (Fc fusion, name in Kabat numbering)
chain: DIQMTQSPSSLSASVGDRVTITCRASQAIDSYLHWYQQKPGKAPKLLIYSASNLETGVPSRFSGSGSGTDFTLTISSLLPEDFAAYYCQQVVWRPFTFGQGTKVEIKRV[human IgG1 Fc with changes left out]

molecular target: T1, recombinant human TNFα (CytoLab) (human, UniProt P01375 partial chain); experiment: ELISA on coated human TNFα
T1 construct: coated on the ELISA plate at 1 µg/ml; also called Tumour necrosis factor alpha
T1 sequence (P01375 77-233 limits assumed): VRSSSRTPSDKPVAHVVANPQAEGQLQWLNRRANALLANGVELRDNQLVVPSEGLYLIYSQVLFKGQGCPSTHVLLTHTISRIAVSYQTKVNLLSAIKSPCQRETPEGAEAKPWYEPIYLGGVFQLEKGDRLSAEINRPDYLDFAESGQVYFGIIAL

First: B1
Second: B2
The “A450 (AU)” value of the first is lower: 0.767 AU for the first, 0.832 AU for the second.

First: B3
Second: B4
The “A450 (AU)” value of the first is lower: 0.472 AU for the first, 0.761 AU for the second.

Compared with B5, B6 is higher in “A450 (AU)” value: 0.797 AU for the first, 0.925 AU for the second.

Going from B7 to B8, the “A450 (AU)” value rises from 0.485 AU to 0.827 AU.

First: B9
Second: B10
The “A450 (AU)” value of the first is higher: 0.8 AU for the first, 0.761 AU for the second.

First: B11
Second: B12
The “A450 (AU)” value of the first is higher: 0.952 AU for the first, 0.723 AU for the second.

Compared with B13, B14 is higher in “A450 (AU)” value: 0.852 AU for the first, 0.904 AU for the second.

First: B15
Second: B16
The “A450 (AU)” value of the first is lower: 0.76 AU for the first, 0.905 AU for the second.

Compared with B17, B18 is higher in “A450 (AU)” value: 0.916 AU for the first, 0.936 AU for the second.

Going from B19 to B20, the “A450 (AU)” value falls from 1.04 AU to 0.149 AU.

First: B21
Second: B22
The “A450 (AU)” value of the first is higher: 0.966 AU for the first, 0.193 AU for the second.

Compared with B23, B24 is higher in “A450 (AU)” value: 0.906 AU for the first, 0.962 AU for the second.

Compared with B25, B26 is lower in “A450 (AU)” value: 0.929 AU for the first, 0.905 AU for the second.

First: B27
Second: B28
The “A450 (AU)” value of the first is higher: 0.718 AU for the first, 0.187 AU for the second.

First: B29
Second: B30
The “A450 (AU)” value of the first is higher: 0.884 AU for the first, 0.64 AU for the second.

With B31 the “A450 (AU)” value was 0.92 AU.
